In patent publication US20180072806A1 (SHIRE HUMAN GENETIC THERAPIES, published 2018):

Experiments:
[1] = biological target: T1, recombinant human soluble Flt-1 (human, UniProt P17948 27-758); test: Affinity (nM) of Table 4; method not given
T1 construct: Recombinant soluble form (immunogen bought from ABCAM); also called human sFlt-1; sFlt-1

mouse Flt-1 (mouse) [2] = biological target: T2, mouse Flt-1 (mouse) (UniProt P35969); test: Affinity (nM) of Table 4; method not given
T2 sequence (looked up): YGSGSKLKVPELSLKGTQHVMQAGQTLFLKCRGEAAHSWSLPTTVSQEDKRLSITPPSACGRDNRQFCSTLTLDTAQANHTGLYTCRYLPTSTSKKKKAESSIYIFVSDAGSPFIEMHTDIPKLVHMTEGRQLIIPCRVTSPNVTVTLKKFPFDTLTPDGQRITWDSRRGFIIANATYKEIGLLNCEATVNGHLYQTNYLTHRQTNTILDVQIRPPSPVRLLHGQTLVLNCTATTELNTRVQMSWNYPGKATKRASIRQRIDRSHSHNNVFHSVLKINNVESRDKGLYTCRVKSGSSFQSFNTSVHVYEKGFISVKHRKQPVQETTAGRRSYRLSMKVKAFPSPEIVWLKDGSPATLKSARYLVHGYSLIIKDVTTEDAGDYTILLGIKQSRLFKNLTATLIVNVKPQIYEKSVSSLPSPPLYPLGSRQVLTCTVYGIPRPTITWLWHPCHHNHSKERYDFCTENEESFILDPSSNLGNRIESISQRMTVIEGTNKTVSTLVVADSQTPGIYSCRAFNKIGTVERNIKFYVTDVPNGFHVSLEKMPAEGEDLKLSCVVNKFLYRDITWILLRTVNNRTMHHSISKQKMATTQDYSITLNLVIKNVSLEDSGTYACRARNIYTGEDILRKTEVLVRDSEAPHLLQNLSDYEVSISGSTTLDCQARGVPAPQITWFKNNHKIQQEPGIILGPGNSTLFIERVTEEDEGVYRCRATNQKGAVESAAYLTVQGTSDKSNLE

[3] = biological target: T1, recombinant human soluble Flt-1; test: IC50 by ELISA (Table 4)
mouse Flt-1 (mouse) [4] = biological target: T2, mouse Flt-1 (mouse); test: IC50 by ELISA (Table 4)
[5] = biological target: T1, recombinant human soluble Flt-1; test: SPR (Biacore)
mouse Flt-1 (mouse) [6] = biological target: T2, mouse Flt-1 (mouse); test: SPR (Biacore)
[7] = biological target: T1, recombinant human soluble Flt-1; test: cell-based or functional assay
mouse Flt-1 (mouse) [8] = biological target: T2, mouse Flt-1 (mouse); test: cell-based or functional assay

T1 sequence (P17948 27-758 limits assumed): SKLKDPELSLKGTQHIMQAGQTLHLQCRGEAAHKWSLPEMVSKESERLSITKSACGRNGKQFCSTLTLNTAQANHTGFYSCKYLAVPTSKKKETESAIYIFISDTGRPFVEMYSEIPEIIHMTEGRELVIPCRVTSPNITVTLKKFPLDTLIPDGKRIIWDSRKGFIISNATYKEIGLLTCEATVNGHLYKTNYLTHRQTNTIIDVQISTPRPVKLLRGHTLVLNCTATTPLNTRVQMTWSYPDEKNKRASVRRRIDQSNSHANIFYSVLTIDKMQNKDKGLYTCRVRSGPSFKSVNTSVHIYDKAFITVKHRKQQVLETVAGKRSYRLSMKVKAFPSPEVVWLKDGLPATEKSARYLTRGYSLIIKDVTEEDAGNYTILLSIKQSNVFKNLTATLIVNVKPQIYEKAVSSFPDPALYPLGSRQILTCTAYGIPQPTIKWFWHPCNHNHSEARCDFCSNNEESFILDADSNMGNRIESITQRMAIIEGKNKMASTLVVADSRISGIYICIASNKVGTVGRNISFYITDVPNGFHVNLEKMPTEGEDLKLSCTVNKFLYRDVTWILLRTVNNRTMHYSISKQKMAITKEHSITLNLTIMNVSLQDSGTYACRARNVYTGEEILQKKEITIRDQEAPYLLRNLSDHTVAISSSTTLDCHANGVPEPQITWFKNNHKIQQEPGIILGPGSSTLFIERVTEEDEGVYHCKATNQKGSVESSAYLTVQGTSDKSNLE

B1: anti-Flt-1 antibody 13B4 (antibody, part only; not given: light chain, part only)
heavy: ELQLVESGGGLVQPGGSLRLSCAASGFTFRDYSMSWVRQAPGKGLEWVSAISWNGDSTYYAESMKGRFTISRDNAKNTLYLQMNSLKSEDTAVYYCAKSWATPIESLYYYGMDYWGKGTLVTVSS[omitted - human IgG1 constant region with H429N (EU numbers)]
With B1 the Kd [1] was 0.6 nM, the Kd (mouse Flt-1 (mouse) [2]) was 1.4 nM and the IC50 [3] was 0.0133 nM. It also gave an IC50 (mouse Flt-1 (mouse) [4]) of 0.5 nM, a Kd [5] of 0.58 nM and a Kd (mouse Flt-1 (mouse) [6]) of 1.4 nM. For the same binder, the Bioassay (% rescue), hFlt-1 [7] was 90% and the Bioassay (% rescue), mFlt-1 (mouse Flt-1 (mouse) [8]) was 72.2%.
